Reference: the supplement of paper PMC12645437, “Orthogonal IMiD-Degron Pairs Induce Selective Protein Degradation in Cells” (ACS Chemical Biology, 2025)
This is one part of the list.

The sequences below were run against no compound (DMSO) (assay: log2 fold change of degron read counts, EGFP-low vs EGFP+ sorted cells; higher = lower degron-EGFP level without compound (poor expression or instability)). Conditions: compound: DMSO control; 18 h.
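Note: jurkat cells carrying a lentiviral library of mutant zinc finger degrons fused to EGFP plus mCherry, mCherry+ cells FACS sorted, degron abundance counted by next-generation sequencing.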

Row | Sequence | log2 fold change of degron read counts
1 | FECNQCGRHFTQKGNLLRHIKL | -0.856
2 | FYCNVCGAQFTQKGNLLRHIKL | -0.291
3 | FRCEQCGAIFTQKGNLLRHIKL | -1.39
4 | FKCNQCGAWFTQKGNLLRHIKL | -0.405
5 | FQCNQCGRTFTQKGNLLRHIKL | -1.56
6 | FICNQCGRLFTQKGNLLRHIKL | 0.437
7 | FICDVCGARFTQKGNLLRHIKL | -1.25
8 | FKCNVCGACFTQKGNLLRHIKL | -0.431
9 | FCCEICGRCFTQKGNLLRHIKL | -1.51
10 | FGCNVCGAHFTQKGNLLRHIKL | -0.759
11 | FFCNQCGRSFTQKGNLLRHIKL | -0.121
12 | FLCDQCGARFTQKGNLLRHIKL | -1.4
13 | LKCNQCGFVCTQKGNLLRHIKL | 0.113
14 | FMCEQCGAKFTQKGNLLRHIKL | -2.21
15 | FWCNICGADFTQKGNLLRHIKL | 0.478
16 | FMCEICGADFTQKGNLLRHIKL | -1.69
17 | FVCDICGAIFTQKGNLLRHIKL | -0.511
18 | FACPICGHAFTQKGNLLRHIKL | -0.555
19 | FSCPICGRRFTQKGNLLRHIKL | -0.157
20 | LLCPICGFDCTQKGNLLRHIKL | 0.901
21 | FFCPQCGANFTQKGNLLRHIKL | 0.149
22 | FFCNICGAMFTQKGNLLRHIKL | 0.326
23 | FICDICGAHFTQKGNLLRHIKL | -0.849
24 | FTCNVCGAFFTQKGNLLRHIKL | 0.459
25 | FTCEQCGAFFTQKGNLLRHIKL | -1.11

Row | Sequence | log2 fold change of degron read counts
26 | FVCPICGHNFTQKGNLLRHIKL | -0.66
27 | FNCDQCGAEFTQKGNLLRHIKL | -3.34
28 | FICPICGAYFTQKGNLLRHIKL | 1.1
29 | FNCEICGRDFTQKGNLLRHIKL | -2.53
30 | FRCDVCGALFTQKGNLLRHIKL | -0.972
31 | FGCNQCGHKFTQKGNLLRHIKL | 0.965
32 | FRCNICGAVFTQKGNLLRHIKL | -0.398
33 | FSCEQCGAIFTQKGNLLRHIKL | -1.31
34 | FMCNICGALFTQKGNLLRHIKL | 0.968
35 | FECNQCGRLFTQKGNLLRHIKL | -0.966
36 | FQCPICGRVFTQKGNLLRHIKL | 0.352
37 | FSCEVCGATFTQKGNLLRHIKL | -2.04
38 | LCCPICGFICTQKGNLLRHIKL | 1.47
39 | LNCPICGFQCTQKGNLLRHIKL | 0.586
40 | LQCNQCGFRCTQKGNLLRHIKL | 0.708
41 | FYCEQCGARFTQKGNLLRHIKL | -0.645
42 | FQCPVCGAHFTQKGNLLRHIKL | -0.0873
43 | FTCPICGATFTQKGNLLRHIKL | -0.65
44 | FDCDVCGACFTQKGNLLRHIKL | -1.43
45 | FNCNICGAEFTQKGNLLRHIKL | -0.712
46 | FTCEICGARFTQKGNLLRHIKL | -1.1
47 | FWCNQCGHVFTQKGNLLRHIKL | 1.07
48 | LGCNQCGFSCTQKGNLLRHIKL | 0.828
49 | FVCNQCGRCFTQKGNLLRHIKL | -0.418
50 | FCCSVCGHQFTQKGNLLRHIKL | -1.19
